Source: the supplement of paper PMC10126150
Sequences with one replicate were seen in a single cluster, so their values are uncertain.

Test system: ATP
Assay: switch fluorescence ratio, 500 uM ATP over buffer (Cy3 cluster intensity, sum of 5 cycles each) (fold (ratio)); higher = stronger signal-on switching upon ATP binding; sequences stand for … in TCGTCGGCAGCGTCAGATGTGTATAAGAGACAGTTTTTTTTTTTTTTTTTTTTTTTTT…TC
Details: aptamer strand: ATP DNA aptamer (quencher-CACCTGGGGGAGTATTGCGGAGGAAGG + anchor), 100 nM annealed; ATP concentration: 500 uM; one replicate
Outline: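 The quencher-labelled ATP aptamer, at 100 nM, was annealed to Cy3-labelled switching-strand clusters on a modified Illumina MiSeq flow-cell. The clusters were imaged in selection buffer, then after 15 min with 500 uM ATP at 22 °C, and this buffer/ATP cycle ran five times with NaOH stripping and re-annealing between runs. Per-cluster fluorescence ratios, summed target-cycle over summed buffer-cycle Cy3 intensity, were averaged per switch-domain sequence. Clusters outside 100-1000 RFU were excluded.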
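Note: ATP exposure 15 min at 22 °C before imaging.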

Row | Sequence | switch fluorescence ratio
1 | TATTCCTACT | 1.07
2 | TAGGATGCCC | 0.986
3 | ATATCCCAGC | 1.02
4 | ATGTAGTACA | 0.954
5 | CCCTTTGTGC | 1.09
6 | TTTAGCGCTC | 1.05
7 | CCTTTATTCA | 1.05
8 | ATAGTCTTGG | 0.938
9 | TTTCCCGTA | 1.06
10 | TTACAGGACT | 1.05
11 | AGTAGATAAC | 1.01
12 | CTTCCTGGTT | 0.975
13 | GCCTTGCCAC | 1.09
14 | CCCCCACATC | 1.81
15 | CGAGGTGTGG | 1.04
16 | AACTTGTTTG | 1
17 | ACACTCGAG | 1
18 | TTTGCGACGC | 1.17
19 | TACGGTGTAT | 1.05
20 | TGAAAAATCT | 1.01
21 | GATACGCGAT | 2.21
22 | TTACCCCCAG | 2.18
23 | GTTTACCGT | 1.02

Row | Sequence | switch fluorescence ratio
24 | TTGTGGCGGG | 0.974
25 | ACGTGACCAG | 1.28
26 | TGAAGATATG | 1
27 | CAAATCGGTA | 0.951
28 | TTGATTACGA | 1.02
29 | CTCTATTTAA | 0.952
30 | CCCAGTGTAA | 1.18
31 | TTGTAATATA | 1.04
32 | TTAATACGG | 1.01
33 | TTCGATGTTT | 0.969
34 | CGTCACCTGT | 1
35 | TTGACTACTC | 0.963
36 | CAGTATTTAA | 1.02
37 | ATGCCGGTTT | 1.04
38 | AGTTTTATAG | 1.02
39 | AACCAGACAC | 1.06
40 | GTTTCGGAAT | 1.08
41 | TTAGAACTT | 0.969
42 | CGGGGCCGCG | 1.03
43 | TAACTCGGTC | 1.05
44 | GGACATGCGC | 0.996
45 | TTCGGGTGT | 1.14
46 | ATTCCTATGG | 0.984

Row | Sequence | switch fluorescence ratio
47 | AGTGGCACAT | 1.04
48 | CGTAACTTAT | 1.01
49 | CCGGAGGCGG | 1.15
50 | TACTAGTCCG | 1.04
51 | GGCAGAGTAA | 0.987
52 | TTGGATCATA | 0.982
53 | GTTGGACAGG | 1.02
54 | ACCCTCACTA | 1.19
55 | TGTACAAAAC | 1.2
56 | GATCGCCGGC | 1.04
57 | TTTTT | 0.976
58 | CACACAGCCT | 1.16
59 | AAAGTGTTAC | 1.02
60 | ATATTCGAGA | 0.971
61 | ATGAGAACCA | 0.996
62 | GGTCAACGTC | 1
63 | TTAGCTGCAT | 0.976
64 | TCGGGCTTCG | 1
65 | ATCAAGAGAA | 0.995
66 | CGACATTCAG | 1.01
67 | GATGGGTCTT | 0.973
68 | CCATAATTAC | 1.24
69 | GGCGTCCCGG | 1.01

Row | Sequence | switch fluorescence ratio
70 | GCTATTGCCA | 1.03
71 | GTTCATACAC | 1.05
72 | CCAATAGCC | 1.13
73 | CAAAAAAGGT | 1
74 | TACGAGGACG | 1.05
75 | CGATCTAATG | 0.966
76 | TGCGAACAGG | 1.07
77 | CGGTCCATCT | 0.974
78 | TGGTCCCGGG | 1.02
79 | CCGGTGCCTG | 0.984
80 | CGAAAGAATA | 4.6
81 | TCAAGTCGGG | 1
82 | AGCAGTGACG | 1.01
83 | TCTGTGCGG | 0.994
84 | TTTGCGGGGC | 1.05
85 | CAGCGAAGAA | 0.988
86 | ATGTATCTCG | 0.944
87 | GAATGGTCTG | 0.98
88 | GGTCGAGGAG | 0.999
89 | GCATGTTGAT | 0.998
90 | CGGTTTCGGA | 0.998
91 | ATCTAGCAAG | 1.1
92 | ATGACCTGGT | 1.04

Row | Sequence | switch fluorescence ratio
93 | TAACTTTAGA | 1.01
94 | TCTCGCGAG | 0.977
95 | GCGTTTCAAA | 1.03
96 | CTACATTGTT | 1.01
97 | TACGTCTCCG | 1.08
98 | AAGTGCTCTC | 0.974
99 | ACCCAGCAC | 1.14
100 | CGGTCTGGCA | 1
101 | TCAAAGTACG | 1.1
102 | GGATCGACGT | 1.15
103 | TTTGATCGCG | 0.995
104 | GTCCCCTCAA | 1.14
105 | TACGGAAGGG | 1.05
106 | TACCTTCAAT | 1.08
107 | ACTCGACTGC | 1.12
108 | TAGCTCACTA | 0.988
109 | CTTTTCCGGT | 0.998
110 | AATGGAACTT | 0.955
111 | GACAAAAAGA | 0.991
112 | CAAGAATTAG | 0.931
113 | GGAGGATTAC | 1.28
114 | ATGTGTTTAG | 1
115 | AGGAAAGAGG | 0.998

Row | Sequence | switch fluorescence ratio
116 | CCGTCAGCGT | 1.65
117 | GGACTTTGCT | 1.01
118 | TAATACGGCA | 1.08
119 | TTAGTTGTGT | 0.972
120 | TATAAACT | 1
121 | TTGCCGAAGG | 0.986
122 | GGTTATCGTG | 0.997
123 | AGGACCCTAT | 1.04
124 | GCGTTATGGT | 0.974
125 | CATTCTAGGG | 0.999
126 | CGGCAGGACT | 1.34
127 | AGTCGTTGTT | 1
128 | ACAACCGGAA | 1.38
129 | CAAAGCGGCC | 1.22
130 | CCAGCACTTA | 1.08
131 | ATGTCTGCAC | 1.14
132 | CGTCGAGTTA | 1.01
133 | AGATTTATAC | 1.05
134 | TGAAGCTGCG | 1.03
135 | CCGTAGGCAA | 4.62
136 | CTACTGGTTT | 0.992
137 | CGGATGAGCC | 0.999
138 | CAGCGATAAT | 1.51

Row | Sequence | switch fluorescence ratio
139 | TGTTGAGTAC | 1.04
140 | TGAAAGATGA | 0.985
141 | TGTCGGGGAA | 0.96
142 | CTATCCTGTT | 1.02
143 | GTGCGGAGGG | 0.976
144 | GGTCTTAACA | 0.988
145 | CGGGGATAAA | 0.98
146 | CATGAGCACA | 1.1
147 | GGTAATACG | 1.08
148 | TCTTTCTCTT | 1
149 | ATTAGTAGCG | 0.982
150 | GCTCTGGCAT | 1.08
151 | TAACGGTGGT | 1.02
152 | GAGCGCTTCA | 1
153 | TCGAACCAAC | 1.2
154 | TCAATCAGA | 0.933
155 | GTCTATAGGC | 1.06
156 | GCGTATTCAG | 1.02
157 | TAAGCCTTGC | 1.15
